Reference: PubChem BioAssay AID686979 (National Center for Advancing Translational Sciences (NCATS), 2013)
The whole screen tested about 420,000 compounds, of which about 50,000 (12%) were called active. Inconclusive results, whose numbers are uncertain, are shown with a selection of clear calls. Calls come from the whole dose curve; as a rule, active = well fitted inhibition curve with a large enough effect; inconclusive = small, poorly fitted or top-dose-only effect; inactive = flat fitted curve, though single readings scatter. No potency is given beside an inconclusive call; the fits are too rough. Some structures have more than one record in an assay (separate samples or runs), and their calls can disagree.

Experiment: qHTS for Inhibitors of human tyrosyl-DNA phosphodiesterase 1 (TDP1): qHTS in cells in presence of CPT; note: nearly all actives have a fitted effect of over 55% in size
Details: chicken DT40 Tdp1-/-;hTDP1 cells + 20 nM CPT, ATP luminescence, 48 h; activity change, negative = growth inhibition: at 46.2 µM (top of the series) unless noted
Excerpt: Human tyrosyl-DNA phosphodiesterase 1 (TDP1) is a novel repair gene, and we propose to use it as a new target for anticancer drug development. TDP1 is not an essential protein, but under treatment with topoisomerase I poison (camptothecin: CPT), TDP1 works as a critical factor for cell survival. To directly identify novel TDP1 inhibitors active in a cellular environment, we have knocked-out the Tdp1 gene in chicken DT40 cells (Tdp1-/-) and generated a complemented counterpart cells that contains a stable transfection of the human TDP1 gene (Tdp1-/-;hTDP1 cells). For the primary screen, Tdp1-/-;hTDP1 cells will be exposed to small molecules in the presence or absence of CPT, and their growth kinetics will be evaluated after 48 hours by measuring ATP activity. […] The hit compounds will then be evaluated in the presence or absence of CPT using Tdp1-/- cells. […] In tertiary assays, biochemical gel-based assays will be used to assess whether the hit compounds specifically target TDP1. To this end, we have screened this cell line against the MLSMR in two primary screens. In one screen we add CPT and in the other we screen in the absence of CPT; this AID represents the screen where CPT was present. NIH Chemical Genomics Center [NCGC] NIH Molecular Libraries Probe Centers Network [MLPCN] MLPCN Grant: MH095538 Assay Submitter (PI): Yves Pommier, NCI
DT40-hTDP1 cells with 20 nM Camptothecin (add 20 microL of 1 mM CPT stock in 1 L of cell culture medium) were dispensed at 400 cells/5microL/well in tissue culture treated 1536-well white wall/solid bottom assay plates (Greiner Bio-One North America, NC, U.S.A.) using a Multidrop Combi 8 channel dispenser (Thermo Fisher, Waltham, MA, USA). 23 nL compounds and controls were transferred using the pin tool (Kalypsys, San Diego, CA, USA) to the assay plates. The assay plates were then incubated at 37 masculineC for a minimum 48 hr. Three microL of Cell Titer Glo solution was added to the plates and incubated at RT in dark for 30 min. Luminescence was read using ViewLux (Perkin Elmer) with 1 sec exposure slow speed, high gain and 2x binning.
% is set by controls: 0 for no effect and ±100 for the full control effect; potency is the fitted concentration of half-maximal effect; tags give direction and shape of the fitted curve.

Structure (SMILES) | Potency | activity change, negative = growth inhibition
COc1cc(/C=N/O)ccc1Oc1ccc([N+](=O)[O-])cc1[N+](=O)[O-] | inconclusive [inhibitor, single point] | –
COc1ccc(C(c2nnnn2C2CCCCC2)N2CCN(c3ccc(OC)cc3)CC2)cc1 (stereo unspecified) | active: 23.1 µM | –
COc1cccc(-c2noc(-c3cc4ccccc4oc3=O)n2)c1OC | – | inactive: -7.87%
O=[N+]([O-])c1cccc(C2=NC(c3ccccc3)CO2)c1 (stereo unspecified) | – | inactive: -22.9%
O=C(CCc1nc2ccccc2c(=O)[nH]1)Nc1ccc(F)cc1 | inconclusive [inhibitor, single point] | –
COc1ccc(CNC(=O)c2sc(=O)n(Cc3ccc(S(=O)(=O)N(C)C)cc3)c2C)cc1 | inconclusive [inhibitor, partial curve, poor fit] | –
O=C(CCCN1CCC(O)(c2ccc(Cl)cc2)CC1)c1ccc(F)cc1 | active: 26.6 µM | –
CCOC(=O)c1[nH]c(C)c(C(=O)Nc2cccc(Cl)c2C)c1C | active: 10.3 µM | –
COc1ccccc1CCNC(=O)c1cc(-c2ccncc2)nc2ccc(Br)cc12 | inconclusive [inhibitor, single point] | –
Cc1ccc(CSc2ncn(-c3ccccc3)n2)cc1 | – | inactive: -13.6%
Cc1ccc(NC(=O)CCN2C(=O)c3ccccc3Sc3ncccc32)cc1 | active: 16.4 µM | –
CC(=O)NC(c1ccccc1)c1nc(-c2cccc(C(F)(F)F)c2)cs1 (stereo unspecified) | inconclusive [inhibitor, single point] | –
Nc1nonc1-c1nc2ccccc2n1CC(=O)Nc1cccc(C(F)(F)F)c1 | inconclusive [inhibitor, single point] | –
COc1ccc(C)cc1NC(=O)CSc1ncc2c(n1)-c1ccc(Cl)cc1N(Cc1ccccc1)S2(=O)=O | active: 9.2 µM | –
CCOc1ccccc1NC(=O)CSc1cn(CC(=O)N2CCCCCC2)c2ccccc12 | inconclusive [inhibitor, single point] | –
FC(F)(F)c1cccc(NCc2n[nH]c(=S)n2C2CCCCC2)c1 | inconclusive [inhibitor, single point] | –
COc1cc(OC)c(NC(=O)C(CC(C)C)N2Cc3ccccc3C2=O)cc1Cl (stereo unspecified) | active: 14.6 µM | –
CCOC(=O)c1ccccc1NC(=S)N1CCCCC1 | inconclusive [inhibitor, single point] | –
O=C(C(NS(=O)(=O)c1cccc2nsnc12)c1ccccc1)N1CCN(c2ccccc2)CC1 (stereo unspecified) | inconclusive [inhibitor, single point] | –
Cc1ccc(Cl)cc1NC(=S)NCCCSC1CCCCC1 | inconclusive [inhibitor, single point] | –
O=C(OCC(=O)N(C1CCCCC1)C1CCCCC1)c1ccc(Cl)nc1 | – | inactive: -4.64%
O=C(O)/C=C/C(=O)Nc1ccccc1SC(F)(F)C(F)(F)C(F)(F)F | inconclusive [inhibitor, single point] | –

Structure (SMILES) | Potency | activity change, negative = growth inhibition
CC1CCN(Cc2csc(N)n2)CC1 | – | inactive: 1.79%
Cc1nn(Cc2ccc(Cl)cc2)c(C)c1NC(=O)C1CC=CCC1C(=O)O (stereo unspecified) | inconclusive [inhibitor, partial curve, poor fit] | –
O=C(NCc1cn(-c2ccccc2)nc1-c1ccccc1)c1cccc([N+](=O)[O-])c1 | inconclusive [inhibitor, single point] | –
COc1cc(NC(=O)C2CCC(CNc3c(N4CCC(C)CC4)c(=O)c3=O)CC2)cc(OC)c1 (stereo unspecified) | inconclusive [inhibitor, single point] | –
Cc1cc(C)n(-c2nc3ccccc3c(=O)n2OCC(=O)Nc2c(C)cccc2C)n1 | inconclusive [inhibitor, single point] | –
CCOC(=O)[C@H]1[C@H]2COc3ccc(OC)cc3[C@@H]2N2C(=O)[C@H](C)NC(=O)[C@@]12C | – | inactive: -11.8%
O=C(NC(=S)N(CC1CCC1)CC1CCCO1)c1cccc([N+](=O)[O-])c1 (stereo unspecified) | inconclusive [inhibitor, single point] | –
O=C(Nc1cc(S(=O)(=O)Nc2ccc(Cl)cc2)ccc1N1CCCCC1)c1ccc(F)cc1Cl | inconclusive [inhibitor, single point] | –
O=C(COC(=O)CCc1ccc(S(=O)(=O)N2CCOCC2)cc1)Nc1ccccc1OC(F)F | – | inactive: -2.7%
CCOc1ccc(NC(=O)NCCCN2CCN(c3ccc(OC)cc3)CC2)cc1 | inconclusive [inhibitor, single point] | –
C=CCc1ccc(O)c(-c2cc(CC=C)ccc2O)c1 | active: 14.6 µM | –
Cc1c(CCC(=O)NCCc2ccccc2F)c(=O)oc2cc(O)ccc12 | inconclusive [inhibitor, single point] | –
O=[N+]([O-])c1ccccc1N=Nc1ccc(O)cc1O | inconclusive [inhibitor, single point] | –
O=C(NCC1CCCCC1)c1cc2ccccc2cc1O | active: 20.6 µM | –
O=C(/C=C/c1ccc(F)cc1)NCC1Cc2cccc(-c3ncccn3)c2O1 (stereo unspecified) | inconclusive [inhibitor, single point] | –
Cc1ccc(CN2CC(C(=O)Nc3ccc(F)c([N+](=O)[O-])c3)CC2=O)cc1 (stereo unspecified) | – | inconclusive: -33% [inhibitor]
Cc1cccc(N2C(=O)CSC23CCCCC3)c1 | inconclusive [inhibitor, single point] | –
COc1cc(C(=O)NCCOc2ccccc2)c(Br)c(OC)c1OC | – | inactive: -19.3%
CC(C)[C@H]1COCCS(=O)(=O)N1Cc1ccccc1-c1ccc(C(C)(C)C)cc1 | inconclusive [inhibitor, single point] | –
CC(C)(C)n1nc2c(c1NC(=O)c1cc3ccccc3o1)CSC2 | – | inactive: -29.8%
CCOc1ccccc1Nc1sc(C(=O)c2ccc(Cl)cc2)c(N)c1C#N | inconclusive [inhibitor, single point] | –
COc1ccc(/C=C/C(=O)N2CCN(S(=O)(=O)c3ccccc3Br)CC2)cc1OC | inconclusive [inhibitor, single point] | –

Structure (SMILES) | Potency | activity change, negative = growth inhibition
CCOC(=O)CN(C(=O)c1ccccc1)c1ccccc1C | inconclusive [inhibitor, single point] | –
[O-]C(=C(C(=S)Nc1cccc2ccccc12)[n+]1cccc(CO)c1)c1ccc(Cl)s1 | inconclusive [inhibitor, partial curve, poor fit] | –
Nc1nonc1-n1nnc(C(=O)N/N=C/c2cc(Br)cs2)c1-c1ccccc1 | inconclusive [inhibitor, partial curve, poor fit] | –
Cc1ccccc1NC(=O)Cn1c(=O)n(Cc2ccco2)c(=O)c2cccnc21 | inconclusive [inhibitor, single point] | –
Cc1ccc(-c2cc(C(=O)NCCc3ccccc3)c3ccccc3n2)cc1C | active: 20.6 µM | –
C=CCn1c(SCC(=O)c2ccc(Br)cc2)nnc1C(CC(C)C)NC(=O)c1cccs1 (stereo unspecified) | inconclusive [inhibitor, single point] | –
Cn1c(Oc2cccnc2CN2CCCC2)nc2cc(-c3cccc(C(F)(F)F)c3)sc2c1=O | inconclusive [inhibitor, single point] | –
O=C(NCCc1ccccc1)c1cc(-c2ccccc2)nc2n[nH]c(-c3ccccc3)c12 | inconclusive [inhibitor, single point] | –
Cc1ccc(NC(=O)CCl)c(C)c1 | inconclusive [inhibitor, single point] | –
COCC(C)n1c(SCC(=O)NC(=O)Cc2ccccc2)nc2ccccc2c1=O (stereo unspecified) | inconclusive [inhibitor, single point] | –
Cc1ccccc1OCCn1cc(C=O)c2ccccc21 | inconclusive [inhibitor, single point] | –
CCCCNC(=O)OC1CC2CC1[C@H]1CCCCN1C2=O (stereo partly specified) | – | inactive: 3.61%
O=C(NC1CC1)C1=C[C@@H](c2coc3ccccc3c2=O)C[C@@H](OCCCCO)O1 | inconclusive [inhibitor, single point] | –
O=[N+]([O-])c1ccccc1S(=O)(=O)N1CCN(Cc2cc3c(cc2O)OCO3)CC1 | inconclusive [inhibitor, partial curve, poor fit] | –
COCCNC(=O)c1ccccc1NC(=O)c1ccc(Cl)c(S(=O)(=O)Nc2ccc(C)cc2C)c1 | – | inconclusive: -31.6% [inhibitor]
N=c1c2c(-c3ccccc3)c(-c3ccccc3)oc2ncn1Cc1ccco1 | inconclusive [inhibitor, single point] | –
CN(C)S(=O)(=O)c1cc(NC(=O)CN2C(=O)NC3(CCCc4ccccc43)C2=O)ccc1Cl (stereo unspecified) | active: 16.4 µM | –
CC(C)c1ccc(NC(=O)CNC(=O)Cn2ccc3ccccc3c2=O)cc1 | inactive | –
COC(=O)c1ccc(C(=O)Nc2ccc(N)cc2N)cc1 | inconclusive [inhibitor, partial curve] | –
CCOC(=O)[C@H]1[C@H]2COc3ccc(Cl)cc3[C@@H]2N2C(=O)c3ccc(F)cc3NC(=O)[C@@]12C | inconclusive [inhibitor, single point] | –
COc1c(Cl)cc(Cl)cc1C(=O)Nc1ccc(NC(=O)c2cccs2)cc1 | inconclusive [inhibitor, single point] | –
COCC(=O)n1nc(NCc2ccc(OC)cc2)nc1NCc1ccc(OC)cc1 | inconclusive [inhibitor, single point] | –
